The source gives no read counts; variants with many changes may rest on few reads.
B1: LINE1-mini (parent)
chain: GGCAGAGCUCAACACAGCGUGGCAAAGUGGCUGUGGCUAGACUGCC

Variants of: B1
Experiment: self-cleavage, relative activity (ratio to wild type); higher = more cleavage; in vitro, sequencing; the parent is a self-cleaving ribozyme

Variant	self-cleavage
GGCAGAGCUCUACAGAGCGUGGCGAAGUGGCUCUGCCUAGACUGCC	0.01
GGCAUAGCUCAACACAAGGUGGCAAAGUGGCUGUGGCUAGACUGCC	0.02
GGCAGAGCUAAACAGAGCUUGGAAAAGUGGCUGUGGCUAGACUGCC	0.02
GGCAGAGCUUAAUAGAUCGUGGCAAAGAGGCAGUGGCUAGACUGCC	0.04
GGCAGAGCUCAACACAGCGUGUCAAAGUAGCUGUGUCUCGACUGCC	0.26
GGCAGAGCUUAACACGGUGUGGCAAAGUGGCUGAGUCUAGACAGCC	0.12
GGCAGAGCUCAACACAGCGUGGCAAGGUGGUUGUGCCUAGACUGCC	0.13
GGCAGCGCUCAACACAGCGUGCCAAAGUGGCUGUGGCUUGACUGCC	0.3
GACAGAGCUCAACACAGCGUGGCAAAGUGGCUGUUGCUAGACUGAU	0.05
GGGAGAACUCAACGCAGCGUGGCAAAGUGGCUGGGGCUAGACUGCC	0.19
AUCAGAGUUCAACACAGCGUGACAAAGUGGCUGUGGCUAGACUGCC	0.13
GGCAGGCCUCAACACAGCGUGACAAAGUGGCUCUAGCUAGACUGCC	0.06
GGCACAGCCCAACACAGCGUGGCAUGUUGGCUGUGGCUAGACUGCC	0.03
GGCAGAGCACAACACAGCGUGGCAAAGCGGCUUUGGCUACACGGCC	0.02
GGCAGAGAUCAUCACAUCGUGGCAAAGUGGCUGUGACUAGACUGCC	0.04
GGCAGAGCUCAACACUGCGUUGCAAAGUGGCUGGGGCCUGACUGCC	0.01
GGCAGAGCCCAACACAGCGUGGCAAAGUGGCUGUGGCGAGAGUGCC	0.02
GACAGAGCUCCACACAGCCUGGCAAAGUGGCUGUCGUUAGACUGCC	0.02
GGCAGAGCCCACCACAGCGUGGCAAAGUGGCUGUGGCUAUACUGCC	0.03

Variant	self-cleavage
GGCGGAGCUCAACACAGCGUGGGAAAGUGGCUGUGGCUAGAGUGCC	0.14
GGCAGAGCUCAACACGGCGUGGUUAAGUAGCUGUGGCUAGACUGCC	2.17
GGCAGAGCUCAACACAUCGUAGCAAAGUGGCUGAGGCUAGACUGCC	0.05
GGCAGAGCUCAACACAGCGUGAAAAAGUGACUGUGGCUACACUGCC	0.26
GGUAUAGCUCAGCACAGCGUGGCAAAGUGGCUGUGGCUAGACUGCC	0.03
GGCUGAGCUCAACACAGCGUGGAAAAGUGGCUGUGGUUAAACUGCC	0.03
GGCAUAGGUCAACACGGCGUGGCGAAGUGGCUGUGGCUAGACAGCC	0.15
CGCAGAGCUUAACACAGCGUGUCAAAGUGGCUGUGGCCAGACUGCC	0.05
GGCAGAAUUCAACACAGCGUGGCAAAGCAGCUGUGGCUAGACUACC	0.22
CGCAGACCUCAACACAGCGGGGCAUAGUGGCUGUGGCUAGACUGCC	0.02
GGGCGAGCUCAACGAAGCGUGGCAAUGUGGCUGUGGCUAGACUGCC	0.31
GUCAGAGCUCAACACAGCGUGGCGAAGUGGCUGUGGCGAGACUGCC	0.03
GGCAGAGCUAAAGCCAGCGUGGCAAAGUGGCUGUGGCUAGACUGCC	0.02
GGCAGAGCUCAACGCGGCGUGGCAAAGUGGCUGUGCCUAGACAGCC	0.01
GGCAGAGCUCAACACGGCGUGGCAAAGUGGGUUUGGUUAGACUCCC	0.01
GGCAGAGCACGACACAGCGUGGCAAAGUGGCUGUGGCUAGAUUGCC	0.01
GGCAGAGCUCAACACAGCAUUGCAAAGUGACUAAGGCUAGAAUGCC	0.01
GGAAGAGCUCAACAAAGCGUUGCAUGGUGGGUCUGGCUAGACUGCC	0.11
GGCAGAGCUCAACACAGCGUGGCAAAAUGGCUGUGUCUAGACUUCU	0.01

Variant	self-cleavage
GGAAGAGCUCAACACAGCAUGGAAAAGUGGCUCUGGCUAGACUGCC	0.08
GGCAGAGGUCAACACAGCGUAGCAAAGUGGCUGUGGCUAGACUCCC	0.06
GGCCGAGCUCAAUACAGCGUGGCAAAGUGGCUGUGGCUAAACUGCC	0.11
GGCAGAGUUCAACACAGCGUGGCAAAGCGGCUGUGGCUACACUGCC	0.08
GUCAGAGCUCAACACAGCGUGGCAAAGUGCGUGUGGCUAGACUGCC	0.04
GGCAAAGCUCAACACAGCGUGGCAAAUUGGUUGUGGCUAGACUGCC	0.2
GGCAGAGCUCAACACAGAAUGACAAAGUGGCUGUGGCUAGACUGCC	0.58
GGCAGAGCUCAACACAUCGUGGCAAUGUGGACGUGGCUAGACUGCC	0.08
GGCAGAGCUCAACAAAGCGUCGCAAAGUGGCUGUGUGUAGACUGCC	0.03
GGCAGAGCCCAACGCAGCGUGGCAAAGUGGCUGGGGCUAGACUGCC	0
GGCAGAGCUCAAAAUAGCGCGGCAAAGUGGCUGUGGCUAGGCUGCC	0.18
GGCAGAGUUCAACACAGAGUUGCAAAGUGGCUGUGGCUAGACUGCC	1.26
GGGAGCGCUCAACACAGUGUGGCAAAAAGGCUGUGGCUAAACUGCC	0.02
GGCAGAGCUCUACACAGCGUGGGAAAGUCGCUGUGGCCAGACUCCC	0.01
GGCAGAGCUCAACACAGCGUAUCAAACUGGCUGUGGCUAGACUGCC	0.21
GGCAGAACUCAACUCAGCGAGGUAAAGUGGCUGUGGCUAGAAUGCC	0.11
GGCACAGCUCAACACAGCGUGGCAAGGAGGCUGUGGCGAGACUGCC	0.03
GGCAGAGCUCAACAUAGCGUGGCCAAGUGGCUGUGUCUAGACUGCC	0.14

Reference: the RNAGym collection of RNA variant scans (doi:10.7554/elife.90254)
